Here are results for 27 molecules from PubChem BioAssay (NCI).

This assay relates to NCI-H322M lung. Put plainly: NCI anticancer screen, dose series, 48 h.

Where “and” joins values, the source holds several entries; their conditions need not be identical. Equal values may be shown once.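 Compound exposure: 48 hours, 5 concentrations, 96-well plates. Here, GI50 denotes the concentration required for 50% inhibition of growth. TGI denotes the concentration required for complete inhibition of growth.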 Square brackets hold non-standard residues; d marks the D form. Peptide text beside a SMILES is read from it. * marks the point of attachment. ξ: configuration not given here. X17 = COc1ccc(C(N*)c2ccc(OC)cc2)cc1; NMeF = CN[C@@H](Cc1ccccc1)C(=O)O; NMeD = CN[C@@H](CC(=O)O)C(=O)O; NMeV = CN[C@H](C(=O)O)C(C)C; ξNMeV = CNC(C(=O)O)C(C)C; Boc = CC(C)(C)OC(=O)*; ξNMeA = CNC(C)C(=O)O; ξV = CC(C)C(N)C(=O)O

`COc1ccc(-c2[nH]c3c4c(nc5c(c24)C(=O)CC(C)(C)C5)CC(C)(C)C3)cc1` had a TGI of over 100 µM.
Regarding `Nc1ccc(C2=NNC(=O)Cc3cc4c(cc32)OCCO4)cc1Cl`, the GI50 was 19 µM and the TGI is over 50 µM.
`CC(=O)/C=C/C1=C(C)CCCC1(C)CC(C)C` (centres undefined) gave a TGI of over 100 µM.
For the molecule `CN(C)c1cc(NN=C(c2ccc(O)cc2)c2ccc(O)cc2)c([N+](=O)[O-])cc1[N+](=O)[O-]`, the GI50 was 12 µM and the TGI is 25.5 µM.
Take `Cc1ccc(NC(=O)c2ccc(OP(=O)(O)Nc3ccc(C)cc3)cc2)cc1`: the TGI was over 100 µM.
For `COc1ccc2nc3cc(Cl)ccc3c(NCCNCC(C)O)c2c1` (centres undefined), the GI50 is 1.55 µM and the TGI is 5.23 µM.
Molecule `NC(=O)c1ccccc1NC(=O)C(=O)C(C(=O)c1ccc(Cl)c(Cl)c1)C1OC(=O)c2ccccc21` (centres undefined) yielded a TGI of over 100 µM.
Still for that read-out and setting: for `COc1cc(S(=O)(=O)Nc2nc(-c3ccc(N4C(=O)C(CC(=O)O)SC4c4cccs4)cc3)cs2)ccc1Cl` (centres undefined) the value was over 100 µM; for `COC(=O)c1c(C)nc2c1cc(O)c1[nH]c(C)c(C)nc12`, over 100 µM.
In the case of `COc1ccc2nc(NC(=O)CSc3nnc4n3S(=O)(=O)c3ccccc3N4c3ccccc3)sc2c1`, the GI50 is over 100 µM and the TGI is over 100 µM.
As to `CCc1c(OC(C)=O)c2c(NC3OCC(OC(C)=O)C(OC(C)=O)C3OC(C)=O)nc(SC)nc2oc1=O` (centres undefined), the TGI was over 100 µM.
On to `O=C1c2cc3c(cc2-c2c1c1ccc(F)cc1c(=O)n2C[C@H](O)[C@@H](O)[C@H](O)CO)OCO3`, for which the GI50 was 0.219 µM and the TGI was 13.8 µM.
Molecule `Cc1ccccc1OC(C)C(=O)NN1C(=O)CSC1c1ccccc1` (centres undefined) had a TGI of over 100 µM.
The same measure, in the same setting: for `CC1=C(Cl)C=CP(=O)(Oc2ccccc2)C1` (centres undefined) the value was over 100 µM; for `Cn1c2ccc3cc2c(=S)c2cc(ccc21)OCCOCCOCCOCCOCCOCCO3`, over 10 µM; for `Oc1ccc2c(c1)c1c(n2CCN2CCOCC2)-c2ccccc2CC1`, over 100 µM.
In the case of `CCC(=C/[C@H](C)C/C=C/C(C)=C/[C@@H](C)C(=O)[C@@H](C)[C@H](O)[C@@H](C)CC)/C=C/[C@H]1OC(=O)C=C[C@@H]1C`, the GI50 is under 0.01 µM and the TGI worked out at 4.24 µM.
In the same order, the values of `Cc1cc(I)cc(CN(CCCN(C)C)C(C)C)c1O` are 22.9 µM and 52.1 µM.
As to `CN(C)CCn1c2c3ccccc3ccc2c2oc(=O)c3ccccc3c21`, the TGI was 32.2 µM.
As to `O=C(/C=C/c1ccc(O)cc1)c1ccc(O)cc1`, the TGI was over 100 µM.
`C/C(CCn1[nH]c(=O)ccc1=O)=N\NC(=O)C(=O)NN` yielded a TGI of over 100 µM.
With `CC(C)(C)c1cc2ccc(C(N)=O)cc2c(=O)[nH]1`, the TGI is over 100 µM.
In the case of `O=C1C=C[C@@H](COC2OC(CO)C(O)C(O)C2O)O1` (some centres undefined), the TGI was 35.1 µM and 29.3 µM.
In turn, `O=C(/C=C/c1ccc2c(c1)OCO2)Cc1nc2ncccc2[nH]c1=O` had a TGI of over 100 µM.
On to `C(=C(c1ccc(OC2CCCCO2)cc1)c1ccc(OC2CCCCO2)cc1)c1ccccc1` (centres undefined), for which the TGI came to 2.37 µM.
`Nn1c(Nc2ccc(S(=O)(=O)Nc3ncccn3)cc2)nnc(/C=C/c2c(O)ccc3ccccc23)c1=O` yielded a TGI of over 100 µM.
`COc1ccc(C(NC(=O)C[C@@H](C(=O)N(C)C(C)C(=O)O)N(C)C(=O)[C@@H]2CCCN2C(=O)[C@H](C(C)C)N(C)C(=O)C(C(C)C)N(C)C(=O)[C@H](Cc2ccccc2)N(C)C(=O)C(NC(=O)OC(C)(C)C)C(C)C)c2ccc(OC)cc2)cc1` (some centres undefined) (Boc-[ξV][NMeF][ξNMeV][NMeV]P[NMeD](X17)[ξNMeA]-OH): the TGI is 37.5 µM and 29.5 µM.
